Article PMC12136788
The list shows a part of the results.

B1: chr12:39763582:39763583:-_ENSG00000139116_ENST00000544797|hu_mus|hu_hu_hu_mus_False|28_108 (ssRNA)
RNA: GGGAGUUCUACAGUCCGACGAUCCUCUAAGAAUUGGGCAUUCACUUUGAAUUCAGGAGGGGGCAGCCCGUUUUUAAUCGCUGAGGUCUUUUUCUCAUCAAUACUCUUAAAAAGGUGUCUAACAGCACGAGAGAUGAUGCCCUGCAACAGAGGAUUGAGCAUCA
B2: chr12:67699843:67699844:+_ENSG00000111530_ENST00000544619|hu_mus|motif|central (ssRNA)
RNA: GGGAGUUCUACAGUCCGACGAUCAAUAAACUGACCUACUACGGCGGGUCCCUCUUUAGGGCAAGCUCGAGUAAGGGCAGCGGCACAUUUGGCAAUGGAAUAAUAAGACUGCUUAUGAGUGAGAGCAGUGCUCUGAGAAUAAACCAACAGAGGAUUGAGCAUCA
B3: chr7:137662931:137662932:-_ENSMUSG00000030850_ENSMUST00000033139|mus_hu|FALSE|FALSE (ssRNA)
RNA: GGGAGUUCUACAGUCCGACGAUCAGCGGCUGCCCGACUCGUUCUUGCAGUAGCCGCAGCGGUAGAAGUCCUCGCUAGGGAAAUAGUCCACGACGCUGGGCGAACCCCCCGCCCAGAAAGCCAUGGCCUCGGCCCCGCGAACGCCAACAGAGGAUUGAGCAUCA
B4: 25283613_25285330_294_5pUTR_ENSMUSG00000033569_ENSMUST00000126626|mouse|control|control (ssRNA)
RNA: GGGAGUUCUACAGUCCGACGAUCAGAGGCCACUGCCUACUAUGAGGGUAACUGAGGGGGUACCAGAGGAUUCCAUGACUAUUUCUCUAGGUUGCUGAGCCAAAAUGGCGAAGGUAGAGAGCCGAUCACAUAAGCAUUUCGUAUCAACAGAGGAUUGAGCAUCA
B5: chr12:16048344:16048345:+_ENSG00000023734_ENST00000419869|hu_hu|hu_hu_hu_mus_True|58_78 (ssRNA)
RNA: GGGAGUUCUACAGUCCGACGAUCAGAUCGUCCAUAAGUAAUAACCAAAAUCUCUCCCUCAGGAAUAUACUCCAUGCUACUAACAGACAUAUUAAAAUUCAGAGAUUUCACUUCUGUCAUUGUGGCAUGAUCCCAGAGCCGAACCAACAGAGGAUUGAGCAUCA
B6: chr5:174939138:174939139:+_ENSG00000164466_ENST00000321442|hu_mus|FALSE|FALSE (ssRNA)
RNA: GGGAGUUCUACAGUCCGACGAUCACCAACCUUCAGCUCCCUUUGUCUCAUCAGUGGGAUGUUAAUGCAGUUAGCAGCAGCUACAGCAGCGAAGGGAACAAAACGUCCUAUCAGUGGGGAGACACGCUUGGUUAAGGCAUUGAGCAACAGAGGAUUGAGCAUCA
B7: chr1:204375296:204375297:-_ENSG00000158615_ENST00000367188|hu_hu|FALSE|FALSE (ssRNA)
RNA: GGGAGUUCUACAGUCCGACGAUCGCCAACUCAACAUUGCUUGAGAACAUUAAGUCCUUUGAAGCAUGUUCCCUGGAGUCUAUUAAACAUUCUUUCUCUGUGUUCAAAUGUCAAGCAAUAUCCAAUAGCAUCUUCUGUUUCUUGCAACAGAGGAUUGAGCAUCA
B8: chrX:153994619:153994620:+_ENSG00000130826_ENST00000369550|hu_hu|motif|central (ssRNA)
RNA: GGGAGUUCUACAGUCCGACGAUCCCCCACAUACUCUUUGCCUGCACUCUGUUGUGACUUCACCAAGCGAGUGGCUCGUUCGGUGCACACGAUUAAACAACCAGUCACCUUGGGAUCCAGCGUACCACUGUGCCCUGUCUUCUCCAACAGAGGAUUGAGCAUCA
B9: chr7:7679991:7679992:-_ENSG00000106399_ENST00000396682|hu_hu|hu_hu_hu_mus_False|8_18 (ssRNA)
RNA: GGGAGUUCUACAGUCCGACGAUCUGGGAUGAAUCUUUUCCAGCUUCCCCACGAAGCACACGGGCCGGUCGAUAUACUGUGGUAACAUGCUGGCGUUGACGCGCGCUUUGGGGAGCUCCAUCAUGUCCACCAUGAUUCUGCCGCCAACAGAGGAUUGAGCAUCA
B10: chr14:45599971:45599972:-_ENSG00000100442_ENST00000396062|hu_hu|motif|central (ssRNA)
RNA: GGGAGUUCUACAGUCCGACGAUCAUAGGCUGUAACCAAGUGGUCCUUGUUAGCUGUCUUGGCCACAUUUUUAAUGUUUCCGGAUAAUUUAUGUUCUGCAAGAAACGAAUCUGAACCGUGUUCCUGCAGAAACUUGAUAAUGUCCAACAGAGGAUUGAGCAUCA
B11: chr9:127920631:127920632:-_ENSG00000119414_ENST00000456642|hu_mus|FALSE|FALSE (ssRNA)
RNA: GGGAGUUCUACAGUCCGACGAUCAAUACGGUCAGGCCACUUAGCCUUUAGUGCAAGAAGAUAAGUGAAGGUCUCCAAACUAUAGUAACCUCUGUCUACAAAAUCACCCAUAAAUAUGUAGUUUGUGUCAGGAACCUGACCUCCCAACAGAGGAUUGAGCAUCA
B12: chr17:62496344:62496345:-_ENSG00000108654_ENST00000581693|hu_hu|FALSE|FALSE (ssRNA)
RNA: GGGAGUUCUACAGUCCGACGAUCCCCAAAAUCUCUUUUAAGCAGGCUAGAGUAACCUCUGUCAUAAUUUUCCCUGUCUCUAAAGGUAUUAAAUCCACCCCUUUUGCCCGCAGAGUAUCUGUCCCGACGGUCAUCCUUCAUGCCCAACAGAGGAUUGAGCAUCA
B13: chrX:20248510:20248511:+_ENSMUSG00000001924_ENSMUST00000001989|perfect_dup|motif|central (ssRNA)
RNA: GGGAGUUCUACAGUCCGACGAUCGACCUGACUGACGAUGCCUCCACGGAUGUAGUCAGAGAAGUUGGAAGUGUCACAGAUACGGAAGGUAUAAGGACCCAGCACUUUGAUCUCCAUGGGCUGACAUCCAUUGAGUUGGAUCAUCAACAGAGGAUUGAGCAUCA
B14: chr15:79189513:79189514:+_ENSG00000185787_ENST00000426013|hu_hu|FALSE|FALSE (ssRNA)
RNA: GGGAGUUCUACAGUCCGACGAUCCUUUUAUUUUUUCUCUGUUUAAAAUCAAACAGAAAACAAACAUCAAUUGUUAUACACUAACAUCUUCAAAGCACAUCGUUUGUACAAGAGAUAGACUAAGAACAAAAAUGUGUUUACGGACAACAGAGGAUUGAGCAUCA

target: T1, UNK ZnF1-3 (human, UniProt Q9C0B0 31-174); experiment: nsRBNS (natural sequence RNA bind-n-seq); RBNS binding buffer (assumed for nsRBNS): 25 mM Tris pH 7.5, 150 mM KCl, 3 mM MgCl2, 0.01% Triton X-100, 500 ug/ml BSA, 20 U/ml SUPERase-In, 4 C; UNK is unkempt and MSI1 is Musashi-1; names of the RNAs are library labels; protein concentration not given here; high values mean tight binding
T1 sequence: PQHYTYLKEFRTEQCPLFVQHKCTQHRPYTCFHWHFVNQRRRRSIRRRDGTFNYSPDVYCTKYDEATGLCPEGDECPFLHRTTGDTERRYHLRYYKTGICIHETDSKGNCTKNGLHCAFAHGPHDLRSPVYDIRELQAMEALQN

Binder | binding signal
B1 | 2.01 enrichment R
B2 | 1.23 enrichment R
B3 | 0.741 enrichment R
B4 | 1.45 enrichment R
B5 | 0.849 enrichment R
B6 | 1.78 enrichment R
B7 | 0.603 enrichment R
B8 | 0.853 enrichment R
B9 | 0.87 enrichment R
B10 | 0.508 enrichment R
B11 | 1.06 enrichment R
B12 | 0.882 enrichment R
B13 | 0.457 enrichment R
B14 | 0.359 enrichment R
